# Laboratory results published in article PMC4336329 (PLoS ONE, 2015).
# The whole screen tested about 310,000 compounds, of which about 14,000 (4.5%) showed an effect of 50% or more. The effect is printed as a negative number. Some of the results follow.
# Target: human ether-à-go-go-related gene (hERG) potassium channel (human, UniProt Q12809)
# Assay: primary screen, population patch clamp on CHO cells stably expressing hERG
# 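Further: peak tail current of the secondary pulse compared with the same well before compound.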
# Sequence of human ether-à-go-go-related gene (hERG) potassium channel (Q12809 whole entry, looked up): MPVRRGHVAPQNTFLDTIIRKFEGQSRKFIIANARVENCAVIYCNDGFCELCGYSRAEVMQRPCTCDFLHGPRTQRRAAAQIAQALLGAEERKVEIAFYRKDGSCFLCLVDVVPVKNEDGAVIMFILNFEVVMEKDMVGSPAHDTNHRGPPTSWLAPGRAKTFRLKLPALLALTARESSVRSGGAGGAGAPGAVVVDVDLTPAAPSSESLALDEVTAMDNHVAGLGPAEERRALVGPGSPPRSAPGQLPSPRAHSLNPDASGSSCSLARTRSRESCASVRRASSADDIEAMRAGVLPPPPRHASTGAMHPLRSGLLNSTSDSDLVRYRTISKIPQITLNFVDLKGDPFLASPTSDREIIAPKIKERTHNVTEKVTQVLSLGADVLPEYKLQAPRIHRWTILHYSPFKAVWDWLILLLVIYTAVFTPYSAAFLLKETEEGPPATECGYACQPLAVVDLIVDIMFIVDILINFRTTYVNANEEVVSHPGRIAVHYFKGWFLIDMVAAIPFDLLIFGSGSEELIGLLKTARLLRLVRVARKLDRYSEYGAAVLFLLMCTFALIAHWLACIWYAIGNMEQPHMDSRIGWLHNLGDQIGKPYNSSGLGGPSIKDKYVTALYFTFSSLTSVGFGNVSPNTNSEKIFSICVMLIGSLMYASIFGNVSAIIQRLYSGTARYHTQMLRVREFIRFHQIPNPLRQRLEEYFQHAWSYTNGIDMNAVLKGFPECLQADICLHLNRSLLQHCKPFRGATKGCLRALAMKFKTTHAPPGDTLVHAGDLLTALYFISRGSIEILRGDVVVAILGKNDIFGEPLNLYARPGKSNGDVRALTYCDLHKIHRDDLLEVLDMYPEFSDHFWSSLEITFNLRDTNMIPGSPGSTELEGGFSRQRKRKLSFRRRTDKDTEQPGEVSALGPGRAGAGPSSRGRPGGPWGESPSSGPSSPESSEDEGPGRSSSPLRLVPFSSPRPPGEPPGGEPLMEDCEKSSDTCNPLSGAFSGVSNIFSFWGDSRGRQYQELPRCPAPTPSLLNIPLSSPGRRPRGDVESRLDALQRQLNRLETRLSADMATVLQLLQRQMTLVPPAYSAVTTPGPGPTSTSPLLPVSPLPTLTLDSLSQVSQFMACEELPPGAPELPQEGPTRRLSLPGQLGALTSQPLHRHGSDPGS
row,SMILES,"hERG current change (%, negative = inhibition) at 10uM"
1,CC(C)CCNC(=O)CSc1nc2ccsc2c(=O)n1NC(=O)c1ccccc1,-13.4%
2,O=C(NCC(c1ccco1)N1CCCC1)c1cn(Cc2ccccc2)nc1-c1ccccc1 (stereo not shown),-58.5%
3,CC(C)CNC(=O)CC1Nc2ccccc2NC1=O (stereo not shown),16.9%
4,Cc1cccc(C)c1N1CCN(c2ccc3nnc(C(F)(F)F)n3n2)CC1,9.9%
5,CCCS(=O)(=O)c1ncc(Cl)c(C(=O)Nc2ccc(S(=O)(=O)Nc3ncccn3)cc2)n1,-11.8%
6,COc1ccc(C(=O)NCc2nc3ccccc3[nH]2)cc1OC,1.96%
7,COc1ccccc1-c1cc(C(=O)NCCc2ccccc2)no1,5.18%
8,O=c1cc(N2CCCCC2)c(-c2ccccc2)nn1Cc1c(Cl)cccc1Cl,-7.39%
9,COc1ccc(/C=N/n2c(-c3cc(C)[nH]n3)n[nH]c2=S)cc1,14.5%
10,CCC1S/C(=N/N=C/c2ccco2)NC1=O (stereo not shown),-1.62%
11,O=C(CCN1C(=O)C2C3CCC(C3)C2C1=O)OCC(=O)c1ccccc1 (stereo not shown),9.98%
12,Cc1cc(O)ccc1NC1=CC(=O)CC(C)(C)C1,1.89%
13,COc1ccc(C2/C(=C(/O)c3ccc(C)cc3)C(=O)C(=O)N2C)c(OC)c1 (stereo not shown),21.2%
14,CCOC(=O)c1nnn(-c2nonc2-n2cccc2)c1C,-3.31%
15,NS(=O)(=O)c1ccc(Sc2ccccn2)c([N+](=O)[O-])c1,9.58%
16,COc1cccc(C(=O)N2CCCc3ccccc32)c1,-13.8%
17,O=C1CC(NCc2ccco2)C(=O)N1CCc1ccccc1 (stereo not shown),5.23%
18,Cc1cc(=O)oc2cc(O[C@@H]3O[C@H](CO)[C@H](O)[C@H](O)[C@H]3O)ccc12,12.2%
19,CCn1c(C(=O)O)c(CC(=O)Nc2ccccc2OC)c2ccccc21,2.15%
20,O=C(NCc1ccncc1)c1ccc(Cl)c(S(=O)(=O)N2CCOCC2)c1,12.4%
21,C/C(N)=C(/C#N)C(=O)COC(=O)c1ccc(NC(N)=O)cc1,14.6%
22,O=C(NCc1nc2ccccc2[nH]1)C1=C[C@H](C2CCCCC2)C[C@H](OCCCCO)O1,-22.9%

row,SMILES,"hERG current change (%, negative = inhibition) at 10uM"
1,O=C(CCN1CCOCC1)N/N=C/c1cc([N+](=O)[O-])ccc1OC(F)F,7.85%
2,CCOc1ccc(N2C(=O)Cc3ccccc3C2=O)cc1,20.8%
3,COc1ccc(-n2c(C)cc(/C=C3\SC(=S)N(Cc4ccco4)C3=O)c2C)cc1,14.2%
4,COCCn1c(C)cc(C(=O)COC(=O)c2ccc(Cl)c(S(N)(=O)=O)c2)c1C,-8.74%
5,COc1ccc(CNC(=O)CC(C)c2ccccc2)cc1 (stereo not shown),9.14%
6,COc1cccc(CNCc2ccc(C(=O)O)cc2)c1OC.Cl,12.9%
7,Cc1ccc(C(=O)N2CCC3(CC2)NCCc2[nH]cnc23)cc1,-53.9%
8,Cc1cc(N/N=C/c2ccc(O)cc2O)nc(-c2ccccc2O)n1,-1.78%
9,O=C(NCc1ccc2c(c1)OCO2)c1ccncc1,-12.6%
10,O=C(NC1CCCCC1)c1cc(-c2cccc(Cl)c2)on1,11.7%
11,CN(C)CCN1C(=O)C(=O)/C(=C(/O)c2ccc(F)cc2)C1c1ccccc1 (stereo not shown),10.8%
12,Cc1ccc(NC(=O)[C@H](NC(=O)[C@@H]2Cc3ccccc3CN2)c2ccccc2)cc1,-64.1%
13,CCC(=O)Nc1ccc(NC(=O)CSc2nnc(-c3ccc(O)cc3)n2CC2CCCO2)cc1 (stereo not shown),6.42%
14,CC(=O)c1c(Nc2cccc(F)c2)oc(C)cc1=O,12.6%
15,CC1Oc2ccccc2N(CC(=O)NCc2ccccc2)C1=O (stereo not shown),6.53%
16,COc1ccc(C2NC(=O)N(C)C(C)=C2[N+](=O)[O-])cc1 (stereo not shown),3.3%
17,O=C(CCCC(=O)Nc1cccc(Br)c1)N/N=C/c1cc([N+](=O)[O-])ccc1O,-11.5%
18,CCOc1cc(C(=S)N2CCCC2)ccc1OC(=O)Cc1ccc(F)cc1,7.36%
19,CCn1nnc(NC(=O)c2cccnc2Cl)n1,12%
20,Cc1ccccc1/C=N/NC(=O)c1ccc(-n2cnnn2)cc1,12.7%
21,Cc1cccc(NC(=O)C2c3ccccc3C(=O)N3CCc4ccccc4C23)n1 (stereo not shown),-37.3%
